In the supplement of paper PMC9446081 one finds relative growth data, which are given here for 40 compounds.

Among all 39,000 compounds or so, about 220 (0.56%) showed activity. The list shows a part of the results.
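Further: static incubation at 37 °C against the wild-type strain, values averaged over two biological replicates.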

In the assay the test system is Escherichia coli K-12 BW25113. The assay can be described thus: relative growth (OD600 normalised to plate interquartile mean) (fraction); higher = less growth inhibition, active = 0.2 or less. The following applies: 50 µM; LB; incubation time: overnight (16-24 h).
In the case of `C[C@H](CO)N1C[C@H](C)[C@H](CN(C)S(=O)(=O)c2cccs2)Oc2c(NS(=O)(=O)c3ccccc3)cccc2C1=O`, the relative growth was inactive: 1.03.

Consider `CN(CCN)c1ccccc1`, for which the relative growth was inactive: 0.973.

As to `Cc1ccc(S(=O)(=O)N(C)C[C@H]2Oc3ncc(-c4ccncc4)cc3C(=O)N([C@@H](C)CO)C[C@@H]2C)cc1`, the relative growth was inactive: 0.99.

On to `C[C@H](CO)N1C[C@H](C)[C@@H](CN(C)S(=O)(=O)c2ccc(F)cc2)OCCCC[C@H](C)Oc2ccc(NS(C)(=O)=O)cc2C1=O`, for which the relative growth was inactive: 0.992.

`NC(=O)NC[C@H](N)C(=O)O`: the relative growth is inactive: 0.982.

`COc1ccc(NC(=O)Nc2ccc3c(c2)C(=O)N([C@H](C)CO)C[C@@H](C)[C@H](CN(C)C(=O)Cc2ccccc2)OCCCC[C@@H](C)O3)cc1`: the relative growth was inactive: 1.

`COc1ccc(S(=O)(=O)N[C@H]2CC[C@@H](CC(=O)N3CCC(Cc4ccccc4)CC3)O[C@H]2CO)cc1`: the relative growth was inactive: 1.02.

As to `Cc1ccc(S(=O)(=O)NC2=NCN(CCN3CCOCC3)CN2)cc1`, the relative growth is inactive: 0.997.

Turning to `C[C@@H]1CN([C@H](C)CO)C(=O)Cc2cc(NC(=O)c3ccncc3)ccc2O[C@@H]1CN(C)S(C)(=O)=O`, the relative growth was inactive: 1.02.

Consider `C[C@@H]1CN([C@@H](C)CO)C(=O)c2cc(NC(=O)Nc3ccc4c(c3)OCO4)ccc2O[C@@H]1CN(C)C(=O)Nc1ccc(C(F)(F)F)cc1`, for which the relative growth is inactive: 0.994.

For the compound `CCC(=O)O[C@@H](OP(=O)(CCCCc1ccccc1)CC(=O)N1C[C@H](C2CCCCC2)C[C@H]1C(=O)O)C(C)C` (stereo not given in full), the relative growth was inactive: 0.982.

Turning to `N[C@@H]1CC[C@H](CCn2cc(C3CC3)nn2)O[C@@H]1CO`, the relative growth is inactive: 0.967.

For `COc1ccc(S(=O)(=O)N(C)C[C@@H]2Oc3ccc(NS(=O)(=O)c4c(C)noc4C)cc3CC(=O)N([C@@H](C)CO)C[C@H]2C)cc1`, the relative growth is inactive: 0.999.

Take `CO[C@@H]1CN(C)C(=O)c2cc(NC(=O)c3ccccc3)ccc2OC[C@@H](C)N(C(=O)CN(C)C)C[C@H]1C`: the relative growth was inactive: 0.974.

Regarding `C=CC[C@@H](CC(=O)NCCO)C(=O)N[C@@H](COC(=O)[C@H](CC=C)CC(=O)OC(C)(C)C)Cc1c[nH]c2ccccc12`, the relative growth is inactive: 0.995.

For the compound `C[C@H]1CCCCO[C@H](CN(C)C(=O)Cc2ccccc2)[C@@H](C)CN([C@@H](C)CO)C(=O)c2cc(NC(=O)Nc3ccc4c(c3)OCO4)ccc2O1`, the relative growth is inactive: 1.04.

With `C#CCN([C@H](/C=C/C1CC1)[C@@H](O)CCn1cc(-c2ccc(C(=O)NO)s2)nn1)[C@@H](Cc1ccccc1)C(=O)OC`, the relative growth is inactive: 1.03.

Turning to `COc1ccc(CN(C)C[C@@H]2Oc3c(NC(=O)C4CCOCC4)cccc3C(=O)N([C@@H](C)CO)C[C@H]2C)cc1`, the relative growth is inactive: 0.977.

As to `COc1ccc(S(=O)(=O)Nc2ccc3c(c2)C(=O)N([C@@H](C)CO)C[C@@H](C)[C@H](CN(C)C(=O)c2ccccc2)OCCCC[C@H](C)O3)cc1`, the relative growth was inactive: 1.02.

As to `CC(=O)NCc1nccc(N2CCCC2)n1`, the relative growth was inactive: 0.969.

For the compound `CC(=O)Nc1cc(Cl)ccc1C`, the relative growth is inactive: 1.01.

Take `C[C@@H]1CN([C@H](C)CO)C(=O)CCCn2cc(nn2)CO[C@H]1CN(C)C(=O)Nc1ccc(C(F)(F)F)cc1`: the relative growth was inactive: 0.978.

Consider `Cc1noc(C)c1NC(=O)N(C)C[C@H]1Oc2ccc(NC(=O)CCCN(C)C)cc2C(=O)N([C@@H](C)CO)C[C@@H]1C`, for which the relative growth was inactive: 0.989.

Consider `C[C@@H]1CCCCO[C@@H](CN(C)C(=O)Nc2ccc3c(c2)OCO3)[C@H](C)CN([C@@H](C)CO)C(=O)c2cc(NS(=O)(=O)c3ccc(Cl)cc3)ccc2O1`, for which the relative growth was inactive: 1.03.

As for `COC(=O)Cc1c(C)[nH]c(=S)[nH]c1=O`, the relative growth was inactive: 0.997.

For the compound `O=C(C[C@H]1CC[C@H]2[C@@H](COC[C@@H](O)CN2C(=O)c2ccccc2)O1)NCCCN1CCOCC1`, the relative growth was inactive: 0.992.

In the case of `Cc1n[nH]c(=O)nc1NCCCOC(C)C`, the relative growth is inactive: 0.994.

Consider `CCC(=O)N[C@@H]1CC[C@@H](CC(=O)OC)O[C@H]1CO`, for which the relative growth was inactive: 1.04.

In the case of `C[C@@H]1CN([C@H](C)CO)C(=O)Cc2cc(NC(=O)CCC(F)(F)F)ccc2O[C@H]1CN(C)Cc1ccc(-c2ccccc2)cc1`, the relative growth was inactive: 1.03.

In the case of `C[C@@H]1CCCCO[C@@H](CN(C)C(=O)NC2CCCCC2)[C@@H](C)CN([C@H](C)CO)C(=O)c2cc(NC(=O)C3CCCCC3)ccc2O1`, the relative growth is inactive: 1.02.

Regarding `CCCCCCc1nc(-c2cc(C)c(OC)c(C)c2)cc2c1[Si](C(C)C)(C(C)C)O[C@H]2c1ccccc1`, the relative growth is inactive: 1.01.

Take `C[C@H](CO)N1C[C@H](C)[C@@H](CN(C)Cc2ccc3c(c2)OCO3)OCCCC[C@H](C)Oc2ccc(NC(=O)Nc3ccc4c(c3)OCO4)cc2C1=O`: the relative growth is inactive: 0.975.

With `O=C(C[C@@H]1CC[C@@H]2[C@H](COC[C@@H](O)CN2S(=O)(=O)c2ccc(Cl)cc2)O1)N[C@@H]1CCN(Cc2ccccc2)C1`, the relative growth was inactive: 0.963.

For the compound `NS(=O)(=O)c1cc2c(cc1C(F)(F)F)NC(Cc1ccccc1)NS2(=O)=O` (stereo not given), the relative growth is inactive: 1.21.

On to `COc1ccc(NC(=O)N(C)C[C@H]2OCCCC[C@H](C)Oc3ccc(NC(=O)Nc4cccc5ccccc45)cc3C(=O)N([C@@H](C)CO)C[C@H]2C)cc1`, for which the relative growth is inactive: 1.05.

Turning to `COc1ccc(NC(=O)Nc2ccc3c(c2)CC(=O)N([C@H](C)CO)C[C@@H](C)[C@H](CN(C)S(=O)(=O)c2c(C)noc2C)O3)cc1`, the relative growth was inactive: 0.99.

`Cc1c(CN2CCN(C(=O)[C@H](C)O)CC2)sc2c(N3CCOCC3)nc(-c3cnc(N)nc3)nc12`: the relative growth was inactive: 0.984.

Consider `O=C(C[C@@H]1CC[C@H](NC(=O)Nc2ccc3c(c2)OCO3)[C@H](CO)O1)NCCCN1CCOCC1`, for which the relative growth is inactive: 0.992.

On to `C[C@@H]1CN([C@H](C)CO)C(=O)Cc2cc(NC(=O)Cn3cnnn3)ccc2O[C@H]1CN(C)C(=O)Nc1ccc2c(c1)OCO2`, for which the relative growth is inactive: 0.982.

For the compound `Cc1noc(C)c1NC(=O)Nc1ccc2c(c1)CC(=O)N([C@H](C)CO)C[C@@H](C)[C@@H](CN(C)Cc1ccc(C(=O)Nc3ccccc3N)cc1)O2`, the relative growth is inactive: 1.02.
